Measurements as given in the supplement of paper PMC12217912.
The list shows a part of the results. The full chains were built here from the parent and the listed change. Values near 0.05 are background.

B1: TEV protease; numbered along this chain (parent)
chain: MGESLFKGPRDYNPISSSICHLTNESDGHTTSLYGIGFGPFIITNKHLFRRNNGTLVVQSLHGVFKVKDTTTLQQHLVDGRDMIIIRMPKDFPPFPQKLKFREPQREERICLVTTNFQTKSMSSMVSDTSCTFPSGDGIFWKHWIQTKDGQCGSPLVSTRDGFIVGIHSASNFTNTNNYFTSVPKNFMELLTNQEAQQWVSGWRLNADSVLWGGHKVFMVKPEEPFQPVKEATQL

Variants of: B1
Assay: raw area under fraction-flipped curve 0-4 h after induction (AUC4h, not background-subtracted), DNA-recorder readout of cleavage of the substrate (dimensionless); higher = more cleavage of the substrate by the protease variant
Details: temperature: 34 °C; time window: 0-4 h after rhamnose induction
Experimental: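 In vivo DNA recorder in E. coli TOP10(DE3) ΔrhaA at 34 °C. Each TEVp single-site mutant (parent TEVp 0) is paired with a single-site variant of the 7-mer TEVs (canonical ENLYFQ|S). The substrate sits between flexible linkers in a Bxb1-sfGFP-TEVs-SsrA fusion, so cleavage stabilises Bxb1 and speeds flipping of a recombination array, read by NGS. The value is the raw area under the fraction-flipped curve over 0-4 h after rhamnose induction (AUC4h), with ≥20 reads per time point. It is not background-subtracted; inactive controls average about 0.047.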
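Note: Bxb1 expression induced with 0.2% (w/v) L-rhamnose at OD600 near 0.5, cultures sampled hourly, flipped fraction per protease–substrate barcode pair counted by paired-end Illumina sequencing.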

| Variant | area with substrate ENLYCQS | area with substrate ENLYDQS | area with substrate ENLYEQS | area with substrate ENLYHQS | area with substrate ENLYKQS | area with substrate ENLYMQS | area with substrate ENLYNQS | area with substrate ENLYRQS | area with substrate ENLYSQS | area with substrate ENLYTQS | area with substrate ENLYVQS | area with substrate ENLYIQS | area with substrate ENLYLQS | area with substrate ENLYPQS | area with substrate ENLYWQS | area with substrate ENLYGQS | area with substrate ENLYQQS | area with substrate ENLYYQS |
| --- | --- | --- | --- | --- | --- | --- | --- | --- | --- | --- | --- | --- | --- | --- | --- | --- | --- | --- |
| MGESLFKGPRDYNPISSSICHLTNESDGHTTSLYGIGFGPFIITNKHLFRRNNGTLVVQSLHGVFKVKDTTTLQQHLVDGRDMIIIRMPKDFPPFPQKLKFREPQREERICLVTTNFQTKSMSSMVSDTSCLFPSGDGIFWKHWIQTKDGQCGSPLVSTRDGFIVGIHSASNFTNTNNYFTSVPKNFMELLTNQEAQQWVSGWRLNADSVLWGGHKVFMVKPEEPFQPVKEATQL [T132L] | 0.0835 | 0.0621 | 0.0481 | 0.0805 | 0.0652 | 0.0803 | 0.075 | 0.0503 | 0.0889 | 0.0741 | 0.106 | – | – | – | – | – | – | – |
| MGESLFKGPRDYNPISSSICHLTNESDGHTTSLYGIGFGPFIITNKHLFRRNNGTLVVQSLHGVFKVKDTTTLQQHLVDGRDMIIIRMPKDFPPFPQKLKFREPQREERICLVTTNFQTKSMSSMVSDTSCTFPSGDGDFWKHWIQTKDGQCGSPLVSTRDGFIVGIHSASNFTNTNNYFTSVPKNFMELLTNQEAQQWVSGWRLNADSVLWGGHKVFMVKPEEPFQPVKEATQL [I139D] | 0.0853 | 0.0624 | 0.068 | 0.0732 | 0.0559 | 0.0674 | 0.0612 | 0.0527 | 0.0464 | – | 0.103 | 0.0752 | 0.0667 | 0.0584 | 0.0639 | – | – | – |
| MGESLFKGPRDYNPISSSICHLTNESDGHTTSLYGIGFGPFIITNKHLFRRNNGTLVVQSLHGVFKVKDTTTLQQHLVDGRDMIIIRMPKDFPPFPQKLKFREPQREERICLVTTNFQTKSMSSMVSDTSCTFPSGDGIFVKHWIQTKDGQCGSPLVSTRDGFIVGIHSASNFTNTNNYFTSVPKNFMELLTNQEAQQWVSGWRLNADSVLWGGHKVFMVKPEEPFQPVKEATQL [W141V] | 0.0658 | 0.059 | 0.0671 | 0.0561 | 0.0645 | – | 0.0632 | 0.0635 | 0.0534 | – | 0.0677 | 0.0728 | – | 0.0483 | 0.0661 | 0.063 | 0.0566 | 0.0582 |
| MGESLFKGPRDYNPISSSICHLTNESDGHTTSLYGIGFGPFIITNKHLFRRNNGTLVVQSLHGVFKVKDTTTLQQHLVDGRDMIIIRMPKDFPPFPQKLKFREPQREERICLVTTNFQTKSMSSMVSDTSCTFPSGDGIFYKHWIQTKDGQCGSPLVSTRDGFIVGIHSASNFTNTNNYFTSVPKNFMELLTNQEAQQWVSGWRLNADSVLWGGHKVFMVKPEEPFQPVKEATQL [W141Y] | 0.0797 | 0.0541 | – | 0.0617 | 0.059 | – | 0.0634 | – | 0.0713 | – | 0.122 | – | – | 0.0575 | 0.078 | 0.0585 | – | – |
| MGESLFKGPRDYNPISSSICHLTNESDGHTTSLYGIGFGPFIITNKHLFRRNNGTLVVQSLHGVFKVKDTTTLQQHLVDGRDMIIIRMPKDFPPFPQKLKFREPQREERICLVTTNFQTKSMSSMVSDTSCTFPSGDGIFWKTWIQTKDGQCGSPLVSTRDGFIVGIHSASNFTNTNNYFTSVPKNFMELLTNQEAQQWVSGWRLNADSVLWGGHKVFMVKPEEPFQPVKEATQL [H143T] | 0.0657 | 0.0632 | 0.0604 | 0.0505 | 0.0539 | 0.0748 | 0.063 | 0.0551 | 0.0665 | – | 0.0577 | 0.0763 | 0.0596 | – | 0.069 | 0.0767 | – | 0.0799 |
| MGESLFKGPRDYNPISSSICHLTNESDGHTTSLYGIGFGPFIITNKHLFRRNNGTLVVQSLHGVFKVKDTTTLQQHLVDGRDMIIIRMPKDFPPFPQKLKFREPQREERICLVTTNFQTKSMSSMVSDTSCTFPSGDGIFWKHWWQTKDGQCGSPLVSTRDGFIVGIHSASNFTNTNNYFTSVPKNFMELLTNQEAQQWVSGWRLNADSVLWGGHKVFMVKPEEPFQPVKEATQL [I145W] | 0.0531 | 0.065 | 0.0571 | 0.0601 | 0.0385 | 0.0557 | – | 0.0642 | – | 0.0682 | 0.11 | 0.0542 | – | 0.0551 | – | 0.0586 | 0.0373 | 0.0549 |
| MGESLFKGPRDYNPISSSICHLTNESDGHTTSLYGIGFGPFIITNKHLFRRNNGTLVVQSLHGVFKVKDTTTLQQHLVDGRDMIIIRMPKDFPPFPQKLKFREPQREERICLVTTNFQTKSMSSMVSDTSCTFPSGDGIFWKHWILTKDGQCGSPLVSTRDGFIVGIHSASNFTNTNNYFTSVPKNFMELLTNQEAQQWVSGWRLNADSVLWGGHKVFMVKPEEPFQPVKEATQL [Q146L] | 0.116 | 0.0554 | 0.123 | 0.0716 | – | – | 0.0945 | – | 0.0982 | – | – | – | – | 0.0656 | 0.0912 | 0.088 | – | 0.0611 |
| MGESLFKGPRDYNPISSSICHLTNESDGHTTSLYGIGFGPFIITNKHLFRRNNGTLVVQSLHGVFKVKDTTTLQQHLVDGRDMIIIRMPKDFPPFPQKLKFREPQREERICLVTTNFQTKSMSSMVSDTSCTFPSGDGIFWKHWIQTKCGQCGSPLVSTRDGFIVGIHSASNFTNTNNYFTSVPKNFMELLTNQEAQQWVSGWRLNADSVLWGGHKVFMVKPEEPFQPVKEATQL [D149C] | 0.103 | 0.0635 | 0.0726 | 0.0727 | 0.0633 | – | – | – | – | – | – | 0.0785 | – | 0.0632 | 0.0436 | 0.067 | – | 0.0641 |
| MGESLFKGPRDYNPISSSICHLTNESDGHTTSLYGIGFGPFIITNKHLFRRNNGTLVVQSLHGVFKVKDTTTLQQHLVDGRDMIIIRMPKDFPPFPQKLKFREPQREERICLVTTNFQTKSMSSMVSDTSCTFPSGDGIFWKHWIQTKDGFCGSPLVSTRDGFIVGIHSASNFTNTNNYFTSVPKNFMELLTNQEAQQWVSGWRLNADSVLWGGHKVFMVKPEEPFQPVKEATQL [Q151F] | 0.0757 | 0.0511 | 0.0647 | 0.0475 | – | – | 0.0668 | – | – | 0.0672 | – | – | – | 0.0528 | 0.0563 | – | 0.0604 | – |
